Each structure is given as a SMILES string. The list shows a part of the results. Most values come without repeats; read them as rough.
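Note: cell number obtained by counting DAPI-stained nuclei in high-throughput microscope images with image analysis software, screen run in 1,536-well plates.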

The test system of this assay is UACC62. The assay can be described thus: cell count relative to DMSO control; melanoma cells; higher = more viable cells. Conditions: library dose: low library concentration; 72 h.
In the case of `Nc1ccn([C@@H]2O[C@H](CO)[C@@H](O)C2(F)F)c(=O)n1` [gemcitabine] + Cc1cc([N+](=O)[O-])ccc1NS(=O)(=O)c1cc(Cl)ccc1Cl [FH535] (first compound 0.0004 µM, partner dose 1 µM), the cell count came out at 109%. Regarding `Nc1ccn([C@@H]2O[C@H](CO)[C@@H](O)C2(F)F)c(=O)n1` [gemcitabine] + Cc1cc(N2CCOCC2)cc2[nH]c(-c3c(NC[C@@H](O)c4cccc(Cl)c4)cc[nH]c3=O)nc12 [BMS536924] (first compound 0.0004 µM, partner dose 0.2 µM), the cell count was 99.4%. Compound `Nc1nc(F)nc2c1ncn2[C@@H]1O[C@H](CO)[C@@H](O)[C@@H]1O` [fludarabine] + CO[C@@H]1[C@H](N(C)C(=O)c2ccccc2)C[C@H]2O[C@]1(C)n1c3ccccc3c3c4c(c5c6ccccc6n2c5c31)C(=O)NC4 [Midostaurin] (first compound 0.2 µM, partner dose 0.08 µM) registered a cell count of 95.1%. To `Nc1ncn([C@H]2C[C@H](O)[C@@H](CO)O2)c(=O)n1` [decitabine] + O=C1NC(=O)/C(=C/c2ccc(-c3ccc(F)cc3O)o2)S1 [AS252424] (first compound 0.1 µM, partner dose 1 µM) belongs 65.1%. In the case of `Nc1ncn([C@H]2C[C@H](O)[C@@H](CO)O2)c(=O)n1` [decitabine] + CC(C)(C)c1cnc(CSc2cnc(NC(=O)C3CCNCC3)s2)o1 [SNS-032] (first compound 0.1 µM, partner dose 0.01 µM), the cell count was 85.1%. To `Nc1ccn([C@@H]2O[C@H](CO)[C@@H](O)C2(F)F)c(=O)n1` [gemcitabine] + COc1ccc2c(c1)CCC1C2CCC2(C)C(NCCCCCCN3C(=O)C=CC3=O)CCC12 [U73122] (first compound 0.0004 µM, partner dose 0.4 µM) belongs 79.5%; to `Nc1ncn([C@H]2C[C@H](O)[C@@H](CO)O2)c(=O)n1` [decitabine] + COc1cc2c(Oc3ccc4[nH]c(C)cc4c3F)ncnc2cc1OCCCN1CCCC1 [cediranib] (first compound 0.1 µM, partner dose 0.4 µM), 84.7%; to `Nc1ncn([C@H]2C[C@H](O)[C@@H](CO)O2)c(=O)n1` [decitabine] + CN(C)S(=O)(=O)c1ccc2c(c1)/C(=C/c1cc3c([nH]1)CCCC3)C(=O)N2 [SU6656] (first compound 0.1 µM, partner dose 0.4 µM), 80.7%. With `CC(=O)O[C@@]12CO[C@@H]1C[C@H](O)[C@@]1(C)C(=O)[C@H](O)C3=C(C)[C@@H](OC(=O)[C@H](O)[C@@H](NC(=O)OC(C)(C)C)c4ccccc4)C[C@@](O)([C@@H](OC(=O)c4ccccc4)[C@H]21)C3(C)C` [Docetaxel] + COc1cc(N2CCC(N3CCN(C)CC3)CC2)ccc1Nc1ncc(Cl)c(Nc2ccccc2S(=O)(=O)C(C)C)n1 [NVP-TAE684] (first compound 0.0001 µM, partner dose 0.08 µM), the cell count turned out to be 42%. `Nc1nc(F)nc2c1ncn2[C@@H]1O[C@H](CO)[C@@H](O)[C@@H]1O` [fludarabine] + O=C(Nc1cccc(Cl)c1)Nc1ncc(CCNc2ncnc3ccsc23)s1 [SNS314] (first compound 0.2 µM, partner dose 0.0008 µM) showed a cell count of 78%. Compound `CC(=O)O[C@@]12CO[C@@H]1C[C@H](O)[C@@]1(C)C(=O)[C@H](O)C3=C(C)[C@@H](OC(=O)[C@H](O)[C@@H](NC(=O)OC(C)(C)C)c4ccccc4)C[C@@](O)([C@@H](OC(=O)c4ccccc4)[C@H]21)C3(C)C` [Docetaxel] + CC(C)CCN1c2nc(Nc3cc(F)c(O)c(F)c3)ncc2N(C)C(=O)C1C [BID1870] (first compound 0.0001 µM, partner dose 0.2 µM) registered a cell count of 41.3%. The same measure for `Nc1ncn([C@H]2C[C@H](O)[C@@H](CO)O2)c(=O)n1` [decitabine] + COc1ccc(-c2ccc3c(N4CCOCC4)nc(N4C[C@@H](C)O[C@@H](C)C4)nc3n2)cc1CO [KU0063794] (first compound 0.1 µM, partner dose 0.02 µM): 99.1%; for `Nc1ccn([C@@H]2O[C@H](CO)[C@@H](O)C2(F)F)c(=O)n1` [gemcitabine] + CC1(C)NC(=O)N(c2ccc([N+](=O)[O-])c(C(F)(F)F)c2)C1=O [nilutamide] (first compound 0.0004 µM, partner dose 1 µM): 93.2%; for `CC(=O)c1c(C)c2cnc(Nc3ccc(N4CCNCC4)cn3)nc2n(C2CCCC2)c1=O` [palbociclib] + CC(C)(C)c1cnc(CSc2cnc(NC(=O)C3CCNCC3)s2)o1 [SNS-032] (first compound 0.04 µM, partner dose 0.01 µM): 74.9%. The same measure for `Nc1ccn([C@@H]2O[C@H](CO)[C@@H](O)C2(F)F)c(=O)n1` [gemcitabine] + Cc1ccc(NC(=O)c2cccc(N(C)C)c2)cc1NC(=O)c1ccc(O)cc1 [ZM336372] (first compound 0.0004 µM, partner dose 2 µM): 117%.

For the origin of these results see the supplement of paper PMC4604168 (melanoma cell lines).
